Laboratory results from PubChem BioAssay AID1963576 (National Center for Advancing Translational Sciences (NCATS), 2024).
Hit rate of the full screen: of about 46,000 compounds, about 60 (0.1%) were called active. About 3% were inconclusive and are not listed. Calls come from the whole dose curve; as a rule, active = well fitted inhibition curve with a large enough effect; inconclusive = small, poorly fitted or top-dose-only effect; inactive = no such curve, though single readings can be large or run the other way. Some of the results follow.

assay: Primary qHTS assay for Inhibitors of ovarian cancer metastasis using an organotypic tumor microenvironment (TME) model.; note: nearly all actives have a fitted effect of over 65% in size;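 for activity change, negative = inhibition: plate controls were DMSO wells for no effect and tomatine positive control wells for full effect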; settings: SKOV3ip1-GFP adhesion/invasion on 3D omental model, fluorescence; series mostly up to 45.8 µM; activity change, negative = inhibition: at the top concentration
How it was run: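 qHTS, 4-pt dose (0.36-46 umol/L); SKOV3ip1-GFP, 1,200 cells/well, no FBS; primary omental fibroblast/mesothelial co-culture 48 h pre-grown; 2 h RT + 16 h 37 C; PBS wash, 4% PFA; GFP count 488/509 nm.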

Activity change, negative = inhibition, inactive:
CCOC(=O)c1[nH]c(C)c(CCC(=O)NC(C)c2ccccc2)c1C (stereo not given) 3.65%, Cc1ccc(-n2c(=O)c3c(cnn3C)n(CC(=O)Nc3c(C)cccc3C)c2=O)cc1 -3.13%, COc1ccc(NC(=O)c2oc3c(c2C)-c2nn(Cc4ccccc4Cl)cc2CC3)cc1OC -8.68%, CCOC(=O)C1=C(CN2CCN(c3cccc(OC)c3)CC2)NC(=O)NC1c1ccc(OC)cc1 (stereo not given) 2.35%, COc1ccc(NS(=O)(=O)c2ccc3c(c2)CC(C)N3C(C)=O)c(OC)c1 (stereo not given) 8.08%, COc1cccc(-c2nc(CS(=O)(=O)CC(=O)NCCc3ccc(OC)c(OC)c3)c(C)o2)c1 32.3%, CC(CNC(=O)Cn1c(-c2cccs2)cc2ccccc21)c1ccccc1 (stereo not given) -0.184%, COC(=O)Cc1c(C)c2ccc3c(c2oc1=O)CN(Cc1ccccc1OC)CO3 -14.5%, COc1cccc(C(=O)Nc2c(C(=O)c3ccc(F)cc3)oc3ccccc23)c1 -8.42%, Cc1oc(-c2ccc(Cl)cc2)nc1CSCC(=O)NCc1ccccc1Cl 22.1%, COc1cc(C2c3c(oc4ccc(C)cc4c3=O)C(=O)N2Cc2ccccc2)ccc1O (stereo not given) 0.735%, Cc1ccccc1Nc1cc(C(=O)NCCc2ccc(Cl)cc2)c2ccccc2n1 -9.96%, Cc1ccc2c(CC(=O)N(Cc3ccc(Cl)cc3)Cc3ccco3)coc2c1 2.65%, CCC(=O)N1CCCc2cc(S(=O)(=O)N3CCC(C(=O)Nc4ccccc4CC)CC3)ccc21 1.27%, O=C(Nc1cccc(F)c1)c1cccc2c1C(=O)N(C1CCCCC1)C2 2.71%, Cc1ccc(Cl)cc1N1CCN(CCCNC(=O)c2nnc(Cc3cccc(Cl)c3)o2)CC1 -25.2%, CCCOc1ccc(C2c3c(-c4ccccc4O)n[nH]c3C(=O)N2CCCOCC)cc1OCC (stereo not given) 3.8%, Cc1cc(C)cc(Nc2nnc(-n3nc(C)cc3C)c3ccccc23)c1 1.32%, CN1CCc2nc3sc(C(=O)Nc4cccc(C#N)c4)c(N)c3cc2C1 5.57%, COc1ccccc1NC(=O)Cn1c(=O)n(-c2cccc(Cl)c2)c(=O)c2c1c1cc(C)ccc1n2C -0.865%, CC(C)(S)[C@@H](N)C(=O)O 5.55%, CCCOc1ccc(NC(=O)CC2C(=O)N(c3ccc(Cl)cc3)C(=O)N2CCc2ccncc2)cc1 (stereo not given) 5.78%, Cc1cccc(OCC(=O)Nc2ccc(Cl)c(-c3nc4ccccc4[nH]3)c2)c1 1.91%, CCN1CCN(Cc2c(O)ccc3oc(C)c(C(=O)Nc4ccc(C)cc4C)c23)CC1 14.3%, CCOC(=O)c1ccc(CN(Cc2ccccc2C)S(=O)(=O)c2ccc(F)c(C(=O)Nc3cccc(OC)c3)c2)cc1 -2.1%, O=C1CC(c2nnc(Cc3ccccc3Cl)o2)CN1c1ccccc1 (stereo not given) 2.46%, Cc1ccc(-c2cc3c(n2-c2ccccc2F)CC(C)(C)CC3=O)cc1 3.28%, O=C(CC1C(=O)N(c2ccccc2)C(=O)N1Cc1ccc2c(c1)OCO2)Nc1ccccc1 (stereo not given) 12%, COc1ccc(C)cc1NC(=O)N1CCN(c2cc(-c3noc(C)n3)ccc2C)CC1 -1.43%, Cc1ccc(NC(=O)c2sc3nc(-c4ccc(F)cc4)ccc3c2N)cc1F -23.7%, CCOC(=O)c1cnc2ccc(C)cc2c1NCCc1ccc(OC)c(OC)c1 3.3%, COc1ccc(NC(=O)c2oc3ccccc3c2NC(=O)Cc2cccs2)cc1 -15.2%, O=C(CN1C(=O)CSc2ccc(S(=O)(=O)N3CCCC3)cc21)NCc1ccc(Cl)cc1 -1.36%, COc1ccc(NC(=O)CN2C(=O)COc3ccc(S(=O)(=O)N4CCCCC4)cc32)cc1Cl -25.2%, CCC1CCCCN1CCCNC(=O)c1ccc2c(c1)N(Cc1ccc(Cl)cc1)C(=O)c1ccccc1S2(=O)=O (stereo not given) -19.4%, COc1ccccc1N1CCN(c2ccc(-c3nc(-c4ccccc4)no3)cc2[N+](=O)[O-])CC1 1.2%, O=C(Cn1cc(C(=O)C2CC2)c2ccccc21)Nc1ccc(Br)cc1 1.14%, CC(=O)c1ccc(NC(=O)CCCc2nc(-c3cccc(C)c3)no2)cc1 -11.6%, Cc1ccc(C)c(Cn2c(=O)n(CCCCCC(=O)NCc3ccc4c(c3)OCO4)c(=O)c3sccc32)c1 -4.38%, CN(C(=O)C(=O)Nc1ccc2nc3n(c(=O)c2c1)CCCCC3)c1cccc(C(F)(F)F)c1 1.79%, Cc1onc(-c2ccc(F)cc2F)c1C(=O)Nc1cccc(C(F)(F)F)c1 -15.7%, CCc1ccc(NC(=O)Cn2c(=O)oc3cc(S(=O)(=O)N4CCCCCC4)ccc32)cc1 -7.86%, CC(C)Sc1ncc(Cl)c(C(=O)Nc2nnc(C(C)C)s2)n1 -12.2%, CCCOc1ccc(C2C(=O)N(C3CCC(C)CC3)CC(=O)N2CCC2=CCCCC2)cc1OC (stereo not given) -5.52%, O=C(Nc1ccccc1)c1cccc(S(=O)(=O)Nc2cccc(F)c2)c1 -17.6%, CCc1ccc(CNC(=O)c2cc(-c3ccc(Br)s3)nc3ccccc23)cc1 -8.52%, COc1ccc(CCNC(=O)c2c(C)nn(-c3ccc(F)cc3)c2-n2cccc2)cc1OC -14.7%, Cc1ccc2onc(CC(=O)N(C)c3ccccc3)c2c1 3.5%, Cc1ccc(S(=O)(=O)N2CCOCC2)cc1C(=O)Nc1ccccc1C(=O)O -1.4%, Cc1cccc(N2CCN(C3(c4ccccc4)C(=O)c4ccccc4C3=O)CC2)c1C -10.4%, CC(C)CNc1nc(Oc2ccc(OCC(N)=O)nn2)nc(N2CCOCC2)n1 -14.1%, Cc1cccc(NS(=O)(=O)c2ccc(-n3cccn3)cc2)c1C 23.7%, Cc1nn(C)c2c1c(C(F)(F)F)cc(=O)n2Cc1cccc(Br)c1 -0.329%, O=C(CCc1nc2cccnc2n1Cc1cccs1)Nc1cccc(Cl)c1 -2.05%, COc1ccccc1CNC(=O)c1ccc2nc(-c3ccccc3)c(-c3ccccc3)nc2c1 -6.37%, CCn1cc(C(=O)NCc2ccc(C)cc2)c(=O)c2cc(S(=O)(=O)N3CCCCCC3)ccc21 5.17%, CCOc1ccc(CNC(=O)c2ccc(NC(=O)N3CCCCc4ccccc43)cc2)cc1OC 3.5%, CCOc1ccc(-n2c(-c3ccccc3)c(C)n3c4c(=O)n(C)c(=O)n(C)c4nc23)cc1 7.71%, Cc1cc(-c2nnc3n2CCCCC3)c(C)n1-c1ccccc1 10.3%, CCCCCOc1ccc(/C=C/C(=O)Nc2sc(C(C)=O)c(C)c2C(=O)OCC)cc1OC 20%, CCc1ccc(-n2c(=O)c3sc4ccccc4c3n(Cc3cccc(F)c3)c2=O)cc1 33.8%, CCOC(=O)N1CCc2c(sc(NCc3ccc(OC)c(OC)c3OC)c2C(=O)Nc2ccc(OC)cc2OC)C1 -1.03%, CCCC(=O)NCC(c1ccc2c(c1)OCO2)N1CCN(c2ccccc2)CC1 (stereo not given) 8.64%, CCCNC(=O)C1CCN(c2ncnc3c2nc2n3CCCCC2)CC1 1.02%, C=C1CCC2[C@](C)(CO)C(O)CC[C@]2(C)C1CC=C1C(=O)OCC1O (stereo not given in full) -6.01% [at 92.2 µM], Cc1oc(C)c2c(=O)cc(-c3ccc4c(c3)OCO4)cc(OC(=O)c3ccccc3Cl)c12 -9.45%, COC(=O)c1ccccc1NC(=O)CCC(=O)N1CCOc2ccccc21 -4.3%, COc1cc(Nc2ncc(F)c(Nc3ccc4c(n3)NC(=O)C(C)(C)O4)n2)cc(OC)c1OC 19.8%, COc1ccccc1Cn1ccn(Cc2c(F)cccc2Cl)c(=O)c1=O -3.58%, CCC(=O)Nc1ccc(S(=O)(=O)NCc2ccc3c(c2)CCN3C(=O)c2ccc(C)cc2)cc1 -9.96%, CCN(CC)C(=O)c1sc(NC(=O)C(C)Sc2nc(-c3ccccc3)cc(C(F)(F)F)n2)c(C(=O)OC)c1C (stereo not given) 7.12%, Nc1cc(=O)nc(SCC(=O)Nc2cccc(Cl)c2)n1CCc1ccccc1 0.873%, CSc1ccc(-c2nc3ncccn3c2Nc2ccc(C)c(C)c2)cc1 -0.773%, CC(=O)c1ccc(NC(=O)Nc2nnc(N3CCCC(C)C3)s2)cc1 (stereo not given) -23.1%, CCN(c1ccccc1)c1nnc(NC(=O)Nc2cccc(Cl)c2C)s1 1.59%, CN(C)c1oc(/C=C/c2ccc(F)cc2)nc1C#N -8.68%, Cc1cccc(-c2c3c(=O)n(C)c(=O)n(C)c3cn2-c2cc(N)c(Cl)cc2Cl)c1 0.492%, COCCN1CCc2nc(SCC(=O)Nc3ccc(Br)cc3)[nH]c(=O)c2C1 5.63%, COc1ccc(Cl)cc1Nc1ncnc2c1c(-c1ccccc1)cn2-c1ccccc1 4.63%, CC(C)(C)OC(=O)N1CCC(c2c(C(=O)NCc3cccs3)cnn2-c2ccc(F)cc2F)CC1 15.4%, Cc1nc2c(C(=O)NCCc3ccccc3)cnn2c(C)c1Cc1c(F)cccc1Cl 7.05%, COc1ccc(NC(=O)Nc2sc3nc4n(c(=O)c3c2C)CCC(C)CC4)cc1OC (stereo not given) 2.82%, Cc1ccc(NCc2ccccc2-c2nnc(-c3ccccc3Cl)o2)c(C)c1 27.4%

outcome, inactive:
Cn1c(=O)c2c(n3ncnc13)NC(=O)CC2c1cccc(F)c1 (stereo not given), Cc1ccc(C(=O)Nc2nc(-c3nnn(-c4cccc(Cl)c4C)c3C)ns2)cc1C, CCC(=O)N1CCc2cc(Br)cc(S(=O)(=O)N3CCCC(C(=O)NCc4ccc(OC)cc4)C3)c21 (stereo not given), CCc1ccccc1NC(=O)CSc1ncc(S(=O)(=O)c2ccccc2)c(=O)[nH]1, Cc1c(C)n(Cc2ccc(F)cc2)c2ccc(C(=O)Nc3ccc(Cl)cc3)cc12, COc1ccc(OC)c(-c2cc(C(=O)NC(C)c3ccccc3)no2)c1 (stereo not given), O=S(=O)(Nc1ccc2nc(-c3cccc(Cl)c3)oc2c1)c1ccccc1, Cn1cc(S(=O)(=O)N2CCCCCC2)cc1C(=O)NCc1ccccc1Cl, CCc1nnc(NC(=O)c2nc(SCc3ccccc3C)ncc2Cl)s1, Cc1c(Cl)cccc1NC(=O)Cn1c(=O)nc(-c2ccccc2)c2ccccc21, CCOCCCNC(=O)c1cc2c(-c3ccc(OC)c(OC)c3)nn(C)c2s1, NC(=O)C1(N2CCCCC2)CCN(C(=O)Nc2ccc(C(F)(F)F)cc2)CC1
